Source: the supplement of paper PMC3334620
Over roughly 33,000 sequences, “E-score (-0.5 to 0.5)” has its median near -0.021; the highest 2% begin near 0.32. The list shows a part of the results.

Target: T1, Zap1 (UniProt P47043)
T1 sequence: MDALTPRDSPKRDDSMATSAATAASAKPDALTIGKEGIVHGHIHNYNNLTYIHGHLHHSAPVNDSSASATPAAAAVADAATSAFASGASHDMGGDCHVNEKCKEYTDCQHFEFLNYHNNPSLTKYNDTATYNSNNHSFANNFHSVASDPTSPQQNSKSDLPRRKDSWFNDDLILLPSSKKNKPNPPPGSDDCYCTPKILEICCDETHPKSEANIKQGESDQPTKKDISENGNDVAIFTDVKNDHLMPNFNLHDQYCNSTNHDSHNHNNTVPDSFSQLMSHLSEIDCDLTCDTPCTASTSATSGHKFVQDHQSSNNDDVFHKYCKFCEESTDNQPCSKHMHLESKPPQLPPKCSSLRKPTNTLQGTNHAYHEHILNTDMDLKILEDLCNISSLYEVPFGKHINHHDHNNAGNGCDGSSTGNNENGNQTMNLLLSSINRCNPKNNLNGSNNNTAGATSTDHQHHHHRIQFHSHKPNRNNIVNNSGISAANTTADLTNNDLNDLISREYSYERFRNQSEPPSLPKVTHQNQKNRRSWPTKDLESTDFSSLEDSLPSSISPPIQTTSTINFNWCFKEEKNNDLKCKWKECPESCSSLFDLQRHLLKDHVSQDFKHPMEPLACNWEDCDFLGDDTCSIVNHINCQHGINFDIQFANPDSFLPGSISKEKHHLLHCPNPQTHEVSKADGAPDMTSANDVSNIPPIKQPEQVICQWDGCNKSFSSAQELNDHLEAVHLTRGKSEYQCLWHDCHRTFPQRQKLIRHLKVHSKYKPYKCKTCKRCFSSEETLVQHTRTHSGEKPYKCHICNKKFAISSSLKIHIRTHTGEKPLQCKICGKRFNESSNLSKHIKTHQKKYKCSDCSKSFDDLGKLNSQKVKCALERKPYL
Experiment: PBM E-score (8-mer binding enrichment) (E-score (-0.5 to 0.5)); higher = stronger / more preferred TF binding; most listed sequences are background and not binding sites
Conditions: protein concentration: 200 nM; construct: GST-full length
Method in brief: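 E-scores (a modified Wilcoxon-Mann-Whitney statistic) were assigned by the Universal PBM Analysis Suite to every ungapped eight-base word pooled with its reverse complement. The input came from universal all-10-mer Agilent arrays made double-stranded by primer extension and probed with GST-tagged yeast transcription factors at about 100-200 nM. Fluorescent anti-GST detected bound protein, and masliner normalised the scans.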

Sequence	PBM E-score
CAACATTA	0.108
ACGTCGAC	-0.0234
ACCACTCT	0.0546
ATACCAAG	0.072
CCTACTAA	0.0268
TGCGAGAA	-0.159
CCGGTTCC	0.0447
ACTTATCG	-0.125
CGAGCCCG	-0.209
CCTGGCAG	-0.0306
CCGTGGAA	-0.0179
TATGCTGA	0.0979
ACTGCAAA	0.0747
CCCTAACC	0.33
CACTTGTA	0.0154
TAACTGAA	0.0492
CTGAGCTA	-0.214
ACTTTTCG	0.0623
TTAGAAAA	0.119
ACCACGGA	-0.12
GCAGTGCA	-0.227
AGAGGCAC	-0.0444
CAGTTCAC	0.0243
GTGCGCGA	-0.0723
CACACAAA	0.124

Sequence	PBM E-score
ATATTGTG	0.101
ATTAACAG	-0.102
GTATGGCA	-0.168
GTCAGCTA	-0.0748
ATGCCACG	-0.317
CAGTATCA	-0.0565
ACGACAAG	-0.0767
GACAGTCC	-0.0847
GTCAAAAA	0.0924
CTTCGAGA	0.0122
CCTAGTCA	-0.254
AAAGTGAC	0.0397
ACTGGCCT	-0.083
TAAATATA	0.231
GCTTGGCA	-0.0928
CGCTGATA	-0.172
ACGGCTGG	-0.0605
ACAGGCGG	-0.272
AGGTACGG	-0.139
ATGACATG	-0.142
CAGAGTAG	0.0171
ATAACTTA	0.231
CCCCGCCG	-0.00305
GAGTTGTA	0.0387
CATTAACA	0.0919

Sequence	PBM E-score
AGTGGAAT	0.0649
CGACTGAG	-0.072
CATCAGTA	0.058
AGCTGAAT	-0.0562
CCTAACGC	0.0627
AACCGAGG	-0.0131
CGTTCCTC	-0.248
CACTGTTA	-0.2
CATTGTAA	0.0822
ACCGCTGC	-0.0569
CATCATGA	0.0679
ACGACTCC	-0.141
AACCGCAG	0.126
ATAACCTG	0.412
ATGATTGA	0.129
ACAGCTGC	-0.109
CTGACCTA	0.0234
GGAGGGCC	-0.252
ACCACACA	0.102
CCACGCAC	-0.0658
ATATGGTC	0.128
ATCTGCCA	-0.167
CTCGCTTA	-0.0929
AAATTGTT	0.0686
AAGCGGGC	-0.335

Sequence	PBM E-score
CCTATCGC	-0.22
ATACCTCG	0.338
AGACGGCA	-0.132
ATGGCGCC	-0.166
AATCGCGA	0.141
CCGATCCG	-0.27
TATGTCAA	0.152
AAGTCGCA	0.0155
CCATAAGC	-0.0442
CAGCACTG	-0.227
GGCAAGGA	-0.219
CCGGTAAA	0.107
AAGAGAGC	-0.228
ATAGATAA	0.0487
ACTCGACC	-0.0836
CACTGTAG	0.065
AGTACCGA	-0.0924
AGAGCGCC	-0.0379
CCACAGGC	-0.274
GCCACAAC	0.212
AAGCCCGC	-0.116
AGCCATCG	-0.168
GACTGATC	-0.224
GATTGACC	0.0347
ACGAGCCA	-0.11

Sequence	PBM E-score
AGGGTCTG	0.228
GATTGACA	-0.0929
AGTCTAAT	-0.0605
CCTGTGCA	-0.0569
CAGACCAG	0.0109
CCAAAGAA	0.139
AGACATTC	-0.164
CATCGATA	0.0882
ACACCCCC	-0.173
CGCCGACG	-0.181
GTGGGAAC	-0.0242
CAGCTTCC	-0.175
GGCGCCAC	-0.238
TGGATACA	-0.101
CATCGGGC	-0.285
AAAGTAAG	-0.08
ACGACTAA	0.0677
CTAAACAC	0.088
GCCAGCAA	-0.12
CCCGTTGA	0.0244
GGCGGACC	0.0257
AGGGATCG	-0.0717
CGTGAGGC	-0.0791
CAAGGCCA	0.0128
CACCTCAG	-0.0156

Sequence	PBM E-score
CTCATCCC	-0.236
ACGACTAT	0.0329
GGCGGGAA	-0.0633
ACCGCCCT	-0.0715
CAGATTGC	-0.136
ATTTAGTC	0.0804
GCCAACTA	-0.0645
CGAAAAGC	-0.167
TGTCGTAA	0.0637
CCATTCGC	-0.105
CAGAGGAA	-0.0216
CCCGTGTC	-0.137
TCTAGGCA	-0.0489
CTGTCTAA	-0.00329
CACGGTCG	-0.213
TCCAAGCA	-0.235
GATTCCGC	0.0045
GGCTTTTA	-0.265
CGGTACCG	0.38
ACGGTGGG	0.0873
ATCGTAAC	0.291
GCTGGTCC	-0.104
AATATGTC	-0.00754
ACTTGTAA	0.0314
AAATAAGC	-0.0445

Sequence	PBM E-score
CGCGAGGA	-0.0975
TGACAACA	-0.0451
ACTAGGCC	-0.145
AGTAAAGG	0.132
AGAGGTGG	-0.0484
GAGCAGAC	-0.131
CACGCGAG	0.14
CACATGCC	-0.165
ACTCGCAT	-0.0233
CTTGGGGA	0.0156
GTTAGATA	0.123
CCGTAAGG	0.149
CGCCTACG	-0.23
ACTGAATG	-0.0608
GGAACCTA	0.146
AATAATCT	0.0517
ATTAGGCG	-0.0264
TGACCAAA	0.28
ATGAACGA	-0.0648
CACCTCAA	0.174
CCCTAGGG	0.41
ATGACATC	0.089
